Reference: PubChem BioAssay AID504845 (National Center for Advancing Translational Sciences (NCATS), 2011)
Among all 390,000 compounds or so, about 150 (0.038%) were called active. The inconclusive results got no clear call from the source; some entries with a clear call stand among them for comparison. The call rests on the fitted dose curve; in most records, active means well fitted inhibition curve with a large enough effect; inconclusive means small, poorly fitted or top-dose-only effect; inactive means no such curve, though single readings can be large or run the other way. Where the call is inconclusive, the potency comes from a doubtful curve fit.

Molecular target: Regulator of G-protein signaling 4 (Homo sapiens) (UniProt P49798)
Chain of UniProt P49798 (P49798 whole entry, looked up): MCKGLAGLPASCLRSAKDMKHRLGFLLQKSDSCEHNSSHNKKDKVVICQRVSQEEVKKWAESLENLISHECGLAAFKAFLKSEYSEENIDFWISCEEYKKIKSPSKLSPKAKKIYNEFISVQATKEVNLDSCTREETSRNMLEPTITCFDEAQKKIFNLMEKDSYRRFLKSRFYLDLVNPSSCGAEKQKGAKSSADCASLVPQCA
Test: Inhibitors of Regulator of G Protein Signaling (RGS) 4: qHTS; further: nearly all actives have a fitted effect of over 75% in size
Settings: Transcreener GDP fluorescence polarization, RGS4-accelerated GTP hydrolysis; series mostly up to 114 µM; activity change, negative = inhibition: at the top concentration
How it was run: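 MLSMR compounds (23 nl, pin-transferred) preincubated 10 min at room temperature with a 500nM (2x) first reagent, then RGS4 at 900nM (2x) plus Transcreener GDP mix added; fluorescence polarization (620/688 nm) read before and after 90 min at 30 °C.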
On the % scale 0 is the no-effect control and ±100 the full control effect; potency means the concentration at half of the fitted maximal effect; tags describe the fitted curve by direction and shape.

Structure (SMILES) | Potency | activity change, negative = inhibition
Cc1ccc2nc(-c3cc(NC(=O)/C=C/c4ccccc4)ccc3Cl)oc2c1 | inconclusive: 17.8 µM [inhibitor, full curve, poor fit] | 
Cc1c(Cl)cccc1Nc1nc(NCCO)c2ccccc2n1 |  | inactive: 0.423%
Cc1ccc(NC(=O)Cn2c(=O)n(Cc3ccco3)c(=O)c3sc4ccccc4c32)cc1C |  | inactive: -42.9%
Nc1nnn(CC(=O)N/N=C/c2ccncc2)n1 |  | inactive: -8.59%
Cc1ccc(NS(=O)(=O)c2ccc(OCC(=O)NCC3CCCO3)cc2)cc1 (centres undefined) | inconclusive: 100 µM [inhibitor, partial curve, poor fit] | 
N=c1c(C(=O)NCc2ccco2)cc2c(=O)n3ccccc3nc2n1Cc1ccc(Cl)cc1 | inconclusive: 50.1 µM [inhibitor, partial curve, poor fit] | 
CC(C)N=C1NN=C(c2ccc(F)cc2)CS1 | inconclusive: 20 µM [inhibitor, full curve, poor fit] | 
Cc1nn(C(=O)c2ccc(Br)cc2)c(C)c1S(=O)(=O)N1CCOCC1 |  | inactive: -16%
O=C1N=C(N2CCCC2C(=O)O)S/C1=C\c1ccco1 (centres undefined) | inconclusive: 56.2 µM [inhibitor, partial curve, poor fit] | 
N#Cc1c(-c2cccc(F)c2)cc(-c2ccccc2)nc1Br |  | inactive: -1.6%
O=C(Nc1cc(S(=O)(=O)N2CCOCC2)ccc1N1CCCCC1)c1ccc(Cl)cc1 | inconclusive: 10 µM [inhibitor, full curve, poor fit] | 
Cc1ccccc1Nc1c(-c2ccco2)nc2c(C)cccn12 | inconclusive: 10 µM [inhibitor, full curve, poor fit] | 
Cc1cc(Nc2ccc(Cl)cc2)nc(-c2ccccc2O)n1 | inconclusive: 79.4 µM [inhibitor, single point] | 
O=C(NCc1ccco1)c1ccccc1NS(=O)(=O)c1ccc(Cl)s1 |  | inactive: -50.8%
CC(C)(O)c1[nH]c2cc(C(F)(F)F)ccc2c1C(C)(C)O | inconclusive: 100 µM [inhibitor, single point] | 
O=C(NC(=S)Nc1ccc2[nH]ncc2c1)c1ccccc1 | inconclusive: 79.4 µM [inhibitor, partial curve, poor fit] | 
Clc1ccc(-c2cc3ccccc3nc2N2CCCC2)cc1 |  | inactive: -19.5%
O=C(Nc1ccc(C(=O)Nc2ccc(C(=O)Nc3ccc(S(=O)(=O)O)c4cc(S(=O)(=O)O)cc(S(=O)(=O)O)c34)cc2)cc1)Nc1ccc(C(=O)Nc2ccc(C(=O)Nc3ccc(S(=O)(=O)O)c4cc(S(=O)(=O)O)cc(S(=O)(=O)O)c34)cc2)cc1 | inconclusive: 0.0947 µM [inhibitor, full curve, poor fit] | 
Fc1ccc(CNc2nc(-c3cccnc3)nc3ccccc23)cc1 | inconclusive: 89.1 µM [inhibitor, single point] | 
COc1cc(C(=O)NCCCNc2ccc([N+](=O)[O-])cc2)cc(OC)c1OC |  | inactive: -1.94%
CC(C)CN(C(=O)c1cc(Cl)nc2ccccc12)c1c(N)n(Cc2ccccc2)c(=O)[nH]c1=O | inconclusive: 100 µM [inhibitor, single point] | 
O=C(Nc1ccc(Cl)cc1)c1cc(S(=O)(=O)N2CCOCC2)cs1 |  | inactive: 17.2%

Structure (SMILES) | Potency | activity change, negative = inhibition
O=C(COc1ccc([N+](=O)[O-])cc1)NNC(=O)Nc1cccc(F)c1 | inconclusive: 100 µM [inhibitor, single point] | 
CCOC(=O)c1[nH]cc(-c2ccccc2)c1N1CCOCC1 | inconclusive: 10 µM [inhibitor, full curve, poor fit] | 
Cc1ccc(C2(C)NC(=O)N(CC(=O)Nc3ccccc3N3CCCC3)C2=O)cc1 (centres undefined) |  | inactive: 5.86%
C[C@]12c3[nH]c4cc(-c5ccco5)ccc4c3CCN1C(=O)[C@@H](CC(=O)NCc1cccc(C(F)(F)F)c1)C[C@@H]2C(=O)N1CCCCC1 | inconclusive: 89.1 µM [inhibitor, partial curve, poor fit] | 
Cc1sc(-c2ccncc2)nc1OC(=O)c1ccc(Cl)cc1 | inconclusive: 79.4 µM [inhibitor, single point] | 
COc1ccc(CCNS(=O)(=O)c2cccc([N+](=O)[O-])c2)cc1OC | inconclusive: 79.4 µM [inhibitor, partial curve, poor fit] | 
COc1ccc2c(c1)CCC1C2CC[C@@]2(C)C1CC[C@@H]2NCCCCCCN1C(=O)C=CC1=O (some centres undefined) |  | inactive: -6.49% [at 56.9 µM]
CCOC(=O)C1=C(O)/C(=C/c2ccc(-c3ccccc3C(=O)O)o2)SC1=Nc1ccc(C)cc1 | inconclusive: 50.1 µM [inhibitor, partial curve, poor fit] | 
CC(C)c1ccc(NC2CCCN(C(=O)c3ccsc3)C2)cc1 (centres undefined) |  | inactive: -21.5%
Cc1ccc(/C=N/Nc2nc(C(C)(C)C)cs2)o1 | inconclusive: 44.7 µM [inhibitor, partial curve, poor fit] | 
CN(C)c1ccc(N/C=C/C(=O)c2ccco2)cc1 | inconclusive: 50.1 µM [inhibitor, partial curve, poor fit] | 
O=C(Nc1ccccn1)c1cccs1 |  | inactive: -92.4% [at 11.4 µM]
OCCn1nc2c3ccccc3nc-2n(-c2ccccc2)c1=S | inconclusive: 79.4 µM [inhibitor, partial curve, poor fit] | 
CC(=O)c1cccc2c(O)c(C3=Nc4ccccc4C3=O)[nH]c12 | inconclusive: 31.6 µM [inhibitor, full curve, poor fit] | 
Cc1ccc(NC2=C(NC(=O)c3ccccc3)C(=O)c3ccccc3C2=O)cc1Cl | inconclusive: 50.1 µM [inhibitor, partial curve, poor fit] | 
O=C(C1CCC(C(=O)N2CCc3ccccc32)CC1)N1CCc2ccccc21 (centres undefined) |  | inactive: -17.5%
Cc1ccc(C(=O)CSc2ccccn2)cc1 | inconclusive: 17.8 µM [inhibitor, full curve, poor fit] | 
CC(C)Sc1nnc([C@H](Cc2ccccc2)NC(=O)OC(C)(C)C)o1 | inconclusive: 20 µM [inhibitor, full curve, poor fit] | 
CC(C)OC(=O)c1nnn(-c2nonc2N)c1CSc1ccccn1 | inconclusive: 70.8 µM [inhibitor, partial curve, poor fit] | 
Cc1ccc(NC(=S)N(CCCN2CCCC(C)C2)Cc2ccco2)cc1C (centres undefined) |  | inactive: -13.3%
COc1ccc(S(=O)(=O)N2CCOCC2)cc1NC(=O)CCNC(=O)c1ccc(Br)cc1 | inconclusive: 50.1 µM [inhibitor, partial curve, poor fit] | 
COc1ccccc1NC(=S)NN=C(C)c1ccccn1 | inconclusive: 44.7 µM [inhibitor, partial curve, poor fit] | 

Structure (SMILES) | Potency | activity change, negative = inhibition
Cc1ccc(C(=O)N[C@@H](C)CN2C3=NC[C@H](C(C)C)N3C[C@H]2Cc2ccc(O)cc2)cc1Br |  | inactive: -12.9%
O=C(NC(=S)Nc1ccccc1N1CCCC1)c1cccs1 | inconclusive: 44.7 µM [inhibitor, partial curve, poor fit] | 
Cc1cccc(NC(=O)CSc2nnc(-c3ccco3)c(-c3ccco3)n2)c1 | inconclusive: 56.2 µM [inhibitor, partial curve, poor fit] | 
CCOC(=O)c1scc(-c2ccccc2)c1S(=O)(=O)Nc1ccc(N(C)C)cc1 | inconclusive: 79.4 µM [inhibitor, partial curve, poor fit] | 
CC(=O)NC(CC(=O)NNC(=O)c1cc2ccccc2cc1O)c1ccccc1 (centres undefined) | inconclusive: 44.7 µM [inhibitor, partial curve, poor fit] | 
COc1cc(NC(=O)c2ccco2)c(OC)cc1NC(=O)CSc1nnc(-c2cccs2)n1C | inconclusive: 70.8 µM [inhibitor, single point] | 
CCOC(=O)c1ccc(NC(=O)c2cnn(-c3ccc(C)cc3C)c2C2CCN(C(=O)OC(C)(C)C)CC2)cc1 | inconclusive: 89.1 µM [inhibitor, single point] | 
COc1ccc(Cl)cc1NC(=O)CSC1=Nc2ccccc2C2=NC(CCC(=O)NCc3ccc(F)cc3)C(=O)N12 (centres undefined) | inconclusive: 50.1 µM [inhibitor, partial curve, poor fit] | 
O=c1c(O)c(-c2ccc(O)c(O)c2)oc2cc(O)ccc12 |  | inactive: -12.8%
CCCC(=O)NC(c1ccc(C)cc1)c1ccc2cccnc2c1O (centres undefined) |  | inactive: 10.2% [at 56.9 µM]
Clc1ccc(Cn2nc(-c3ccccc3)nc2-c2ccccc2)cc1 | inconclusive: 89.1 µM [inhibitor, partial curve, poor fit] | 
COCCCNC(=O)c1ccc(Cn2c(=O)c3ccccc3n(CC(=O)Nc3c(C)cccc3C)c2=O)cc1 | inconclusive: 79.4 µM [inhibitor, partial curve, poor fit] | 
NC(=S)Cc1nc(-c2ccc(Cl)cc2)cs1 | inconclusive: 44.7 µM [inhibitor, partial curve, poor fit] | 
CCCC(C)c1nnc(NC(=O)C2CC(=O)N(CCc3ccc(F)cc3)C2)s1 (centres undefined) | inconclusive: 100 µM [inhibitor, partial curve, poor fit] | 
CCSc1nc2ccccc2n1CCOc1ccccc1 |  | inactive: -2.93%
CN=c1scc(-c2ccco2)n1/N=C/c1ccc(O)c(O)c1 | inconclusive: 79.4 µM [inhibitor, partial curve, poor fit] | 
O=S(Cc1ccc(Br)cc1)Cc1nnc(SCc2c(Cl)cccc2Cl)n1-c1ccccc1 (centres undefined) |  | inactive: 0.826%
O=C(CO)N/N=C/c1c2ccccc2cc2ccccc12 | inconclusive: 89.1 µM [inhibitor, partial curve, poor fit] | 
COc1ccc(N(C)S(=O)(=O)c2cccc(C(=O)NCC(c3ccco3)N3CCCC3)c2)cc1 (centres undefined) |  | inactive: -19.7%
O=C(CCC(=O)N/N=C/c1cc(Cl)cc(Cl)c1O)NCc1ccccc1 | inconclusive: 35.5 µM [inhibitor, full curve, poor fit] | 
